Out of some 310,000 compounds screened, about 14,000 (4.5%) showed an effect of 50% or more. Effects have a minus sign here. The list shows a part of the results.
Target: human ether-à-go-go-related gene (hERG) potassium channel (human, UniProt Q12809)
Assay: primary screen, population patch clamp on CHO cells stably expressing hERG
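Also: peak tail current of the secondary pulse compared with the same well before compound.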

human ether-à-go-go-related gene (hERG) potassium channel, sequence (Q12809 whole entry, looked up): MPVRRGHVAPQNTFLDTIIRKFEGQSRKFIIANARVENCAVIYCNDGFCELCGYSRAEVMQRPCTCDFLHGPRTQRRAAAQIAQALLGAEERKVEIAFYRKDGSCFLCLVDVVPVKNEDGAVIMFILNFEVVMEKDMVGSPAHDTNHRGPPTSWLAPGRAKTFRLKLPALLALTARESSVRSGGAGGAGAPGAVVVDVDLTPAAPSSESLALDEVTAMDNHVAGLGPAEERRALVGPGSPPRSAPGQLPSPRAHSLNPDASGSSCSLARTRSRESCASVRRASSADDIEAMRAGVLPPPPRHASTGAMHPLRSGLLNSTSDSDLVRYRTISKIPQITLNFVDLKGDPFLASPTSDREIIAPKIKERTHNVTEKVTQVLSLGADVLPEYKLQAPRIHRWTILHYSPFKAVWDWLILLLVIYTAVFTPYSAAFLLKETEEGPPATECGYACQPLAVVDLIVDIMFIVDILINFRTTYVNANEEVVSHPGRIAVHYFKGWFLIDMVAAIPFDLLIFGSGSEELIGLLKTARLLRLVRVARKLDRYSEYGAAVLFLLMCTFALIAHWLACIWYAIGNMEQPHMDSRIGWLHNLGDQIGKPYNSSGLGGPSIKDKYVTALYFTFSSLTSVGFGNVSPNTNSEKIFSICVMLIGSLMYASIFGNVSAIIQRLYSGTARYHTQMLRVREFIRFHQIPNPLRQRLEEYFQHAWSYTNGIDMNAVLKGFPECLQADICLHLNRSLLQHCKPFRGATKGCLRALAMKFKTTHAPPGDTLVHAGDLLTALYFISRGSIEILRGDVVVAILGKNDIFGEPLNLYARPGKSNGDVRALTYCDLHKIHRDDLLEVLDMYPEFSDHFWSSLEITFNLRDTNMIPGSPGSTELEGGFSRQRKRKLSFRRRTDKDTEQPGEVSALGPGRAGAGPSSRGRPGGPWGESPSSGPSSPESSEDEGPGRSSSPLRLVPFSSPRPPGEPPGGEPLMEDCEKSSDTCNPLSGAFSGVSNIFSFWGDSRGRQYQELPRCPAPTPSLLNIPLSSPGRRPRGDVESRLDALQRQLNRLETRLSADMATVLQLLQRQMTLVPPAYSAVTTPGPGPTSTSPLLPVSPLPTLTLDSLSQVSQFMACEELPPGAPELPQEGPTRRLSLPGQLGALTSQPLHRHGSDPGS

Compound	hERG current change (%, negative = inhibition) at 10uM [%]
CCC1CCC2(CC1)NC(=O)N(CC(=O)Nc1cccc(S(=O)(=O)N(C)c3ccccc3)c1)C2=O (stereo not drawn)	-5.29
N#Cc1c2n(c3c(=O)n(Cc4ccc(Cl)cc4)cnc13)CCCC2	-33.9
C/C(=N\NC(=S)Nc1ccccc1)c1c(O)n(C)c(=O)n(C)c1=O	22.5
CCOC(=O)C1CCN(c2ccc([N+](=O)[O-])cc2)CC1	-68.9
CCOCCCNc1nc(=S)[nH]c2cc(OC)c(OC)cc12	-5.74
COc1cc(NC(=O)CSc2ccc3c(c2)OCCO3)cc(OC)c1OC	6.48
O=C(O)C(F)(F)S(=O)(=O)O	18.6
CCCCCCCc1nc2c(=O)n(C)c3ccccc3c2o1	4.63
Cc1nc2ccccc2c(=O)n1/N=C/c1ccccc1OC(F)F	20
O=C(NNC(=O)C1CC=CCC1)c1ccccc1O (stereo not drawn)	-4.58
COc1ccc(NC(=O)C2CC(=O)N(c3ccccc3Cl)C2)c(OC)c1 (stereo not drawn)	-6.36
C(=N\N1CCOCC1)/c1nc(-c2ccccc2)n2ccccc12	-7.67
Cc1occc1C(=O)N1CCCC(CCC(=O)NCc2ccc(F)c(F)c2)C1 (stereo not drawn)	-4.76
O=C(Nc1nccs1)C1CCCN1/C=C/C(=O)C(F)(F)F (stereo not drawn)	13.9
COc1cc2c(cc1OC)CN(CC(=O)Nc1ccccc1C(=O)NC1CC1)CC2	-24.5
CN1CCN(c2ccc(CNS(=O)(=O)c3cccc(F)c3)cc2)CC1	-3.36
CCOC(=O)C1CCN(c2ccc(C(N)=O)cc2[N+](=O)[O-])CC1	9.94
N=C1C(c2ccccc2)=C(O)CN1c1cccc(S(N)(=O)=O)c1	10.1
COc1cc(NC(=O)c2cc3ccccc3cc2O)c(OC)cc1Cl	28.9

Compound	hERG current change (%, negative = inhibition) at 10uM [%]
OCC1(Cc2cccc(C(F)(F)F)c2)CCN(Cc2cc(F)cc(F)c2)CC1	-43.4
CCc1ccc(Nc2nnc(SCC(=O)c3c(N)n(C4CC4)c(=O)[nH]c3=O)s2)cc1	-17.7
CCn1c(SCC(N)=O)nnc1-c1ccc2c(c1)OCO2	-0.333
O=C1C2C3C=CC(C4CC34)C2C(=O)N1c1ccc2c(c1)OCO2 (stereo not drawn)	6.2
CC1CC(C)CN(C(=O)c2ccc3ccccc3c2)C1 (stereo not drawn)	-19.2
O=S(=O)(Nc1ccc2c(c1)OCCO2)c1cccc(F)c1	5.23
CC1CN(Cc2cc(=O)[nH]c(C(C)C)n2)CC(C)O1 (stereo not drawn)	13.4
CCc1nc2ccccc2c(C(=O)OCC(=O)Nc2cccc(S(=O)(=O)NC3=NCCCCC3)c2)c1C	-3.2
CC(C)=C1C2CCC1C(C(=O)Nc1sc(C)c(-c3ccc(C(C)C)cc3)c1C(N)=O)C2C(=O)O (stereo not drawn)	-22.5
Cc1c(NC(=O)c2cnn3c2NC(c2ccco2)CC3C(F)(F)F)c(=O)n(-c2ccccc2)n1C (stereo not drawn)	5.93
CCOC(=O)NC(=O)/C(C#N)=N/Nc1ccc(F)cc1	2.9
CC(O)c1cccc(NC2=CC(=O)CC(C)(C)C2)c1 (stereo not drawn)	-9.38
COc1cnc(-c2ccccc2)nc1Oc1ccccc1C	-4.2
COc1ccc(OC)c(-c2nc(C(=O)NCC3CCCO3)cc3c2[nH]c2ccccc23)c1 (stereo not drawn)	-59.1
COc1ccc(NC(C)=O)cc1NC(=O)CSc1nnc(-c2ccncc2)n1C	21.4
Cc1oc(-c2ccc(Cl)cc2)nc1CS(=O)CC(=O)NCCCN1CC(C)CC(C)C1 (stereo not drawn)	-65.5
CNCC1(c2ccccc2)CCCC1.Cl	15.1
Nc1ccc(S(=O)(=O)N2CCOCCOCCOCCOCCOCC2)cc1	13.2
Cc1cc(Cl)ccc1NS(=O)(=O)c1c(C)[nH]c(=O)[nH]c1=O	9.93

Compound	hERG current change (%, negative = inhibition) at 10uM [%]
Cn1c(=O)c2cc(S(=O)(=O)NC(C(=O)Nc3cccnc3)c3ccccc3)ccc2n(C)c1=O (stereo not drawn)	-0.723
O=C(O)/C=C/c1cnc2ccccc2n1	16.6
CC(C)(C)c1cc(C(=O)NN)n(Cc2ccc(Cl)cc2Cl)n1	12.3
O=C(O[C@@H]1OC2COC(=O)c3cc(O)c(O)c(O)c3-c3c(cc(O)c(O)c3O)C(=O)O[C@@H]([C@H]1O)[C@@H]2O)c1cc(O)c(O)c(O)c1	13.7
CC(C)N1CCC2(CC1)N=C(c1ccc3c(c1)OCO3)CC(c1cc(Cl)ccc1O)N2 (stereo not drawn)	-67.1
c1csc(C2Nc3ccccc3-c3nc4ccccc4n32)c1 (stereo not drawn)	-24
COCCCNC(=O)c1ccccc1Sc1ccc(NC(C)=O)nc1	25.8
Cc1ccc(-n2ncc3c2CCCC3NC(=O)CCc2cnn(C)c2)cc1C (stereo not drawn)	7.27
Oc1cccc2nc3ccccc3nc12	2.6
C=CCn1c(-c2ccncc2)n[nH]c1=S	20.1
COc1ccc(NC(=O)N(Cc2ccc(C)cc2)Cc2cccnc2)c(OC)c1	-10.6
Cc1ccc(C(=O)CC(=O)COc2ccc(Cl)cc2)cc1	7.09
CC(C)Oc1ccc(Br)cc1/C=N\NC(N)=S	-3.05
Cc1c(Cc2ccccc2)c(=O)oc2c(C)c(OCc3nn[nH]n3)ccc12	11.3
CCn1c(=O)c(C(=O)CC#N)c(N)n(Cc2ccccc2)c1=O	-4.73
O=[N+]([O-])c1ccc(S(=O)(=O)NCC(c2cccnc2)N2CCOCC2)cc1 (stereo not drawn)	-22
O=C(CCc1nnc(CCCCc2ccccc2)o1)NCCN1CCOC1=O	14.6
CC(C)c1nc(SCC(=O)c2c[nH]c3ccccc23)n[nH]1	2.6
COc1ccccc1NC(=O)CC(NC1CCCCC1)C(=O)O (stereo not drawn)	11.3
